US11629139B2 (priority 2017, dated 2023)

Details: for m-plasma stability: mouse plasma; for Plasma stability: Tables 9-10; for Mouse plasma stability (% at 4 hours): % remained after four hours
Experimental: Plasma stability was evaluated by incubating 10 μM test compound with undiluted plasma at 37° C. with aliquots removed at multiple time points out to four hours. Aliquots were added to acetonitrile (5×, v:v) to stop any enzymatic activity and held on ice. Samples were centrifuged through a Millipore Multiscreen Solvinter 0.45 micron low binding PTFE hydrophilic filter plate and analyzed by LC-MS/MS.

SMILES: CS(=O)(=O)c1ccc(CNc2ccc(Cl)cc2CN2CCN(C(=O)CNC(=O)C3CC34CCC(F)(F)CC4)CC2)cc1 (stereo not shown) [Compound 1478]
- m-plasma stability: stable

SMILES: CS(=O)(=O)c1ccc(COc2ccc(Cl)cc2CN2CCN(C(=O)CNC(=O)C3CC34CCC(F)(F)CC4)CC2)cc1 (stereo not shown) [Compound 1476]
- m-plasma stability: stable

SMILES: [2H]C([2H])(c1cc(Cl)ccc1N)N1CCN(C(=O)CNC(=O)C2CC23CCC(F)(F)CC3)CC1 (stereo not shown) [Compound 1413, N-(2-(4-((2-amino-5-chlorophenyl)methyl-d2)piperazin-1-yl)-2-oxoethyl)-6,6-difluorospiro[2.5]octane-1-carboxamide]
- Plasma stability: Plasma stability: Stable

SMILES: [2H]C([2H])(c1cc(Cl)ccc1NCc1ccc(S(C)(=O)=O)cc1)N1CCN(C(=O)CNC(=O)C2CC23CCC(F)(F)CC3)CC1 (single isomer, unassigned; (-)) [(−)-1503]
- Mouse plasma stability (% at 4 hours): 72%

SMILES: CS(=O)(=O)c1ccc(COc2ccc(Cl)cc2CN2CCN(C(=O)CNC(=O)C3CC34CCC(F)(F)CC4)CC2)cc1 (single isomer, unassigned; (-)) [(−)-1476]
- Mouse plasma stability (% at 4 hours): 69%

SMILES: CS(=O)(=O)c1ccc(CNc2ccc(Cl)cc2CN2CCN(C(=O)CNC(=O)CC3CCC(F)(F)CC3)CC2)cc1 [Compound 1477]
- m-plasma stability: stable

SMILES: [2H]C([2H])(c1cc(Cl)ccc1N)N1CCN(C(=O)CNC(=O)CC2CCC(F)(F)CC2)CC1 [Compound 1412, N-(2-(4-((2-amino-5-chlorophenyl)methyl-d2)piperazin-1-yl)-2-oxoethyl)-2-(4,4-difluorocyclohexyl)acetamide]
- Plasma stability: Plasma stability: Stable
